# Experimental data reported in PubChem BioAssay AID1461 (National Center for Advancing Translational Sciences (NCATS), 2008).
# In all, about 220,000 compounds went through this assay and about 2,300 (1%) were called active. The shares of active, inactive and inconclusive entries below differ from those in the screen. Calls follow the shape of the dose curve; as a rule, active = well fitted inhibition curve with a large enough effect; inconclusive = small, poorly fitted or top-dose-only effect, or effect the other way; inactive = no such curve, though single readings can be large or run the other way. No potency is given beside an inconclusive call; the fits are too rough.
# Biological target: Neuropeptide S receptor (Homo sapiens) (UniProt Q6W5P4)
# Test: qHTS Assay for Antagonists of the Neuropeptide S Receptor: cAMP Signal Transduction; also: nearly all actives have a fitted effect of over 50% in size
# Details: CHO-NPSR cells, cAMP TR-FRET, antagonist mode; series mostly up to 38.3 µM
# Potency is read from the fitted curve at half-maximal effect; tags tell the direction and shape of the fitted curve.
# Chain of UniProt Q6W5P4 (Q6W5P4 whole entry, looked up): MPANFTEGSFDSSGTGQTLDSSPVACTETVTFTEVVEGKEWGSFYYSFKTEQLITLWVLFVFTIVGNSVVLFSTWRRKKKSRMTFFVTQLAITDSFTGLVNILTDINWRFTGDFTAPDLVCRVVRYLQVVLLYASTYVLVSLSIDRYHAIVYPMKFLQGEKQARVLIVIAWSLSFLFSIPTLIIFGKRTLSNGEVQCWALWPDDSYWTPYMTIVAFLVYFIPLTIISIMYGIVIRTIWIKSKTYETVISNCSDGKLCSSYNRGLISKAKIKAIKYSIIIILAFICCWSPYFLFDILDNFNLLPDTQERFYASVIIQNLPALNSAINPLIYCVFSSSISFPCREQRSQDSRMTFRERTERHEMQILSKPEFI
row,SMILES,Potency
1,[O-][n+]1onc2c1CCc1c-2nc(-c2ccccc2)n1OCc1ccccc1,"inconclusive [inhibitor, single point]"
2,Cc1ccc(OC(C)C(=O)Nc2ccc(C)c(S(=O)(=O)Nc3ccc(C)cc3C)c2)cc1 (stereo not drawn),"inconclusive [inhibitor, single point]"
3,CCOc1ccc(Nc2c3ccccc3nc3ccccc23)cc1,"inconclusive [activator, partial curve]"
4,CCCCN(C)S(=O)(=O)c1ccc(C(=O)N(CCN(C)C)c2nc3ccc(C)cc3s2)cc1,"inconclusive [inhibitor, single point]"
5,COc1ccc(NC(=O)c2oc3ccccc3c2NC(=O)c2ccco2)cc1,"inconclusive [inhibitor, partial curve]"
6,O=C(/C=C/c1ccc2c(c1)OCCCO2)c1ccccc1O,inactive
7,Cc1cccn2c(=O)c(/C=C(\C#N)C(=O)NCc3ccco3)c(N3CCCCC3)nc12,"inconclusive [inhibitor, partial curve, poor fit]"
8,COc1cc(OC)cc(-c2nc(=S)n3ccsc3n2)c1,"inconclusive [inhibitor, single point]"
9,O=S(=O)(c1cccc(-c2nnc(SC(F)F)n2-c2ccccc2)c1)N1CCCCC1,"inconclusive [inhibitor, partial curve]"
10,CCN(CC)c1ccc(/C=C2\SC(=O)N(C(C)C)C2=O)o1,"inconclusive [inhibitor, single point]"
11,O=C(Nc1ccccn1)c1cc(-c2cccnc2)nc2ccc(Br)cc12,"inconclusive [inhibitor, single point]"
12,O=Cc1cccc(OC(=O)c2ccc(Cl)cc2Cl)c1,inactive
13,COc1ccc(CCNC(=O)c2cc(-c3cc(C)cc(C)c3O)n[nH]2)cc1OC,"inconclusive [inhibitor, single point]"
14,Cc1ccc2cc3cc(C(=O)N4CC(C)CC(C)C4)oc3nc2c1 (stereo not drawn),"inconclusive [inhibitor, single point]"
15,Cc1cc([N+](=O)[O-])ccc1-c1ccc(C2Nc3ccccc3C(=O)N2O)o1 (stereo not drawn),"inconclusive [inhibitor, partial curve, poor fit]"
16,CCOC(=O)c1ccc(N2C(=O)c3n[nH]c(C)c3C2c2ccccc2)cc1 (stereo not drawn),"inconclusive [inhibitor, single point]"
17,O=C1/C(=C/c2coc3ccc(O)cc3c2=O)SC(=S)N1c1ccccc1,"inconclusive [inhibitor, single point]"
18,O=C(CN(Cc1ccccc1)C(=O)c1cc2c(s1)CCC2)NCc1cccs1,"inconclusive [inhibitor, single point]"
19,CCn1c(NN)nc2sc3c(c2c1=O)CCC3,"inconclusive [inhibitor, single point]"
20,N#Cc1ccc(C(c2nnnn2CCc2ccccc2)N2CCCCCC2)cc1 (stereo not drawn),"inconclusive [inhibitor, partial curve]"
21,O=C1CSC(c2ccccc2F)N1CCN1CCCCC1 (stereo not drawn),"inconclusive [inhibitor, single point]"
22,CCN1CCN(C(=O)c2oc(=O)c3ccccc3c2-c2ccc(C)cc2)CC1,inactive
23,O=C(Nc1ccccc1)c1cc2ccccc2c(=O)s1,inactive

row,SMILES,Potency
1,O=C(CSc1nccn1-c1ccccc1)Nc1ccc2c(c1)OCO2,"inconclusive [inhibitor, partial curve, poor fit]"
2,COc1cc(NC(=O)Nc2cccc(Cl)c2)c(OC)cc1NC(=O)CN1CCCCC1,inactive
3,O=C(Cn1ncc2c(=O)oc3ccccc3c21)N1CCCc2ccccc21,"inconclusive [inhibitor, single point]"
4,O=S(=O)(CCN1CCN(C(c2ccccc2)c2ccccc2)CC1)C(F)(F)F,"inconclusive [activator, partial curve]"
5,CCCCN(CC)CCNC(=O)c1cc2c(C)nc3ccccc3c2o1,inactive
6,O=C1c2cccc3c([N+](=O)[O-])ccc(c23)C(=O)N1c1ccccn1,"inconclusive [inhibitor, single point]"
7,COc1ccc(S(=O)(=O)N(CC(=O)N2CCN(c3ccccc3OC)CC2)c2ccccc2)cc1,"inconclusive [inhibitor, full curve]"
8,Fc1ccc(-n2c(-c3ccco3)nc3nc4ccccc4nc32)cc1,inactive
9,CCN1CCN(Cc2ccc(NC(=O)c3ccc(C)c(NC(=O)C(=O)c4c[nH]c5ccccc45)c3)cc2C(F)(F)F)CC1,"inconclusive [inhibitor, single point]"
10,CCc1ccc(CN(C)C(=O)CCc2nc3ccccc3n(-c3ccc(OC)cc3)c2=O)cc1,inactive
11,CCN1CCN(CCCNC(=O)c2cn(CCOC)c(=O)c3c2c2ccccc2n3C)CC1,inactive
12,O=C(NC(NC(=S)Nc1cc(Cl)ccc1Cl)C(Cl)(Cl)Cl)c1ccco1 (stereo not drawn),"inconclusive [inhibitor, single point]"
13,Cc1ccc(C)c(NC(=O)c2ccc(OC(=O)c3ccco3)cc2)c1,"inconclusive [inhibitor, single point]"
14,N[C@@H](Cc1c[nH]c2ccc(O)cc12)C(=O)O,"inconclusive [inhibitor, partial curve]"
15,Cc1ccc(-c2csc(N(CCCN3CCOCC3)C(=O)c3ccco3)n2)cc1,"inconclusive [inhibitor, partial curve, poor fit]"
16,Cc1ccc(-c2noc(COc3ccc4c(c3)OCO4)n2)cc1,inactive
17,Cn1nc(-c2ccc(N3CCCCC3)c(NC(=O)c3ccco3)c2)c2ccccc2c1=O,"inconclusive [inhibitor, single point]"
18,Cc1cc2c(cc1C)-c1c(ssc1=Nc1ccc(S(N)(=O)=O)cc1)C(C)(C)N2,inactive
19,Cc1cccc(-n2c(=O)[nH]c3c(C(N)=O)nc(C(C)C)nc32)c1,inactive
20,Cc1c(C(=O)N(Cc2ccccc2)Cc2cccs2)cnn1-c1ccc(Cl)cc1,"inconclusive [activator, partial curve]"
21,COc1ccccc1N1CCN(C(c2cccs2)C(C)NS(=O)(=O)c2ccccc2)CC1 (stereo not drawn),"inconclusive [inhibitor, single point]"
22,CCOc1ccc(Cc2n[nH]c(=S)n2N)cc1,inactive
23,COCCCn1c(C)nc2c(c1=O)c1nc3ccccc3nc1n2CCc1ccccc1,"inconclusive [inhibitor, single point]"

row,SMILES,Potency
1,Cc1ccc(-c2oc3ncnc(N)c3c2-c2ccc(C)cc2)cc1,"inconclusive [inhibitor, single point]"
2,CCc1ccc(OCC(=O)NC(NC(=S)Nc2ccc(C)cc2C)C(Cl)(Cl)Cl)cc1 (stereo not drawn),"inconclusive [inhibitor, single point]"
3,COc1ccccc1C(c1nnnn1CS(=O)(=O)c1ccc(C)cc1)N1CCSCC1 (stereo not drawn),"inconclusive [inhibitor, single point]"
4,O=c1c2c(-c3ccc(Cl)cc3)csc2ncn1/N=C/c1cccc([N+](=O)[O-])c1O,inactive
5,CCOC(=O)Cc1csc(NC(=O)c2c(O)c3ccccc3n(CC(C)C)c2=O)n1,"inconclusive [inhibitor, single point]"
6,C=CCSc1nc2c(c(=O)[nH]c(=O)n2C)n1C(C)C,inactive
7,COc1ccc(-c2cc(C(F)(F)F)n3ncc(C(=O)N(C)Cc4ccccc4)c3n2)cc1,"inconclusive [inhibitor, single point]"
8,O=C(Nc1nc(-c2ccccc2)cs1)C1CCCN(S(=O)(=O)c2ccccc2)C1 (stereo not drawn),"inconclusive [inhibitor, single point]"
9,CCc1ccccc1NS(=O)(=O)c1cc(C)ccc1OC,inactive
10,COc1ccc(CC(=O)N2CCN(c3ccccn3)CC2)cc1,"inconclusive [activator, single point]"
11,Cc1cc(C)c(NC(=O)/C(=C/c2ccccc2)c2ccccc2)c(C)c1,"inconclusive [inhibitor, single point]"
12,O=C1c2ccccc2C(=O)c2c1cccc2N1CCN(Cc2ccccc2)CC1,"inconclusive [inhibitor, single point]"
13,O=C(Nc1ccccc1C(F)(F)F)c1cc(-c2ccccc2O)on1,inactive
14,COc1ccc(C2CC(C(F)(F)F)n3nc(C(=O)NCc4c(C)nn(C)c4C)c(Cl)c3N2)cc1 (stereo not drawn),inactive
15,O=C(CSc1nc2ncccc2[nH]1)c1ccc2c(c1)OCO2,"inconclusive [inhibitor, single point]"
16,CN(C)CCCNC(=O)c1ccc(-c2ccccc2)cc1,inactive
17,O=C(Nc1ccc(N2CCN(c3ncccc3C(F)(F)F)CC2)nc1)c1cccs1,"inconclusive [activator, single point]"
18,CNC(=O)COC(=O)/C=C/c1cn(-c2ccccc2)nc1-c1ccc(C)o1,inactive
19,O=C(N/N=C/c1ccc(OC(=O)c2cccs2)cc1)c1ccc(F)cc1,inactive
20,N#CC1=C(SCc2ccc(C#N)cc2)N=C(N)C(c2nc(-c3ccccc3)cs2)C12CCCCC2 (stereo not drawn),active: 3.98 µM
21,CCOP(=O)(OCC)c1nc(/C=C/c2ccccc2)oc1NCc1ccccc1,"inconclusive [inhibitor, single point]"
22,Clc1ccc(Cn2c(CN3CCCC3)nc3ccccc32)cc1,"inconclusive [inhibitor, single point]"
